Here are results for 26 variants from the supplement of paper PMC7125110.

± gives the standard error. This sample is rich in variants without activity.

Sequences and labels used below:
B1: glmS ribozyme (parent)
chain: AUAAAAGCGCCAGAACUACAGAAAUGUAGUUGACGAGGAGGAGGUUUAUCGAAUUUUCGGCGGAUGCCUCCAAA

Conditions in all cases: with glucosamine-6-phosphate
In data set [1] the parent is B1. Kind of data set: self-cleavage kobs at 640 uM GlcN6P; higher = faster cleavage; RNA array. In outline:
(§1)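 kobs was derived by fitting per-tile medians to one- or two-exponential decays after normalising signals to baseline and to non-cleaving reference variants. Those signals came from barcoded ribozyme variants transcribed in situ by E. coli RNA polymerase on sequenced MiSeq chips, followed through a hybridised Cy3 probe at 37 °C and imaged over ~14 h. Glucosamine-6-phosphate (40 μM to 10 mM) in HEPES/KCl/Mg(OAc)2 buffer was flowed in. Weighted Michaelis–Menten fits across concentrations then gave kcat and KM.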

The variants in data set [2] derive from B1. Kind of data set: self-cleavage kobs at 160 uM GlcN6P; higher = faster cleavage; RNA array. The gist of the method: as §1
Variants of B1 are the subject of data set [3]. Kind of data set: self-cleavage kobs at 2500 uM GlcN6P; higher = faster cleavage; RNA array. In outline: as §1
Data set [4] covers variants of B1. The data set can be described thus: self-cleavage kobs at 40 uM GlcN6P; higher = faster cleavage; RNA array. In outline:
as §1

Data set [5] covers variants of B1. The data set can be described thus: self-cleavage kobs at 10000 uM GlcN6P; higher = faster cleavage; RNA array. In outline:
as §1

As to A6C C10U C16G C58A, in data set [1], the “self-cleavage kobs at 640 uM GlcN6P” value is under 1e-05 s⁻¹. The “self-cleavage kobs at 160 uM GlcN6P” value in data set [2] was under 1e-05 s⁻¹. The “self-cleavage kobs at 2500 uM GlcN6P” value in data set [3] is under 1e-05 s⁻¹.

As to U54C C71U, in data set [4], the “self-cleavage kobs at 40 uM GlcN6P” value was found to be 0.000802 ± 8.6e-05 s⁻¹. Besides, the “self-cleavage kobs at 640 uM GlcN6P” value in data set [1] amounted to 0.00401 ± 0.00061 s⁻¹. Also, the “self-cleavage kobs at 160 uM GlcN6P” value in data set [2] came out at 0.00142 ± 0.00023 s⁻¹. The “self-cleavage kobs at 2500 uM GlcN6P” value in data set [3] amounted to 0.0101 ± 0.0027 s⁻¹. The “self-cleavage kobs at 10000 uM GlcN6P” value in data set [5] came to 0.036 ± 0.0094 s⁻¹.

On to U55C C67U C68A, for which, in data set [4], the “self-cleavage kobs at 40 uM GlcN6P” value was under 1e-05 s⁻¹. In addition, the “self-cleavage kobs at 10000 uM GlcN6P” value in data set [5] was under 1e-05 s⁻¹.

As for U55A C68G, the “self-cleavage kobs at 40 uM GlcN6P” value in data set [4] turned out to be 3.36e-05 ± 1e-05 s⁻¹. Moreover, the “self-cleavage kobs at 640 uM GlcN6P” value in data set [1] amounted to 8.75e-05 ± 1.2e-05 s⁻¹. In addition, the “self-cleavage kobs at 160 uM GlcN6P” value in data set [2] is 6.64e-05 ± 1e-05 s⁻¹.

U54C C70U: in data set [4], the “self-cleavage kobs at 40 uM GlcN6P” value was 0.000628 ± 8e-05 s⁻¹. Besides, the “self-cleavage kobs at 640 uM GlcN6P” value in data set [1] is 0.00435 ± 0.0008 s⁻¹. Further, the “self-cleavage kobs at 160 uM GlcN6P” value in data set [2] stood at 0.00162 ± 0.00035 s⁻¹. Moreover, the “self-cleavage kobs at 10000 uM GlcN6P” value in data set [5] is 0.00879 ± 0.0016 s⁻¹.

As for A6C A12G A36G, in data set [1], the “self-cleavage kobs at 640 uM GlcN6P” value is under 1e-05 s⁻¹.

With A6C C8G C11A A52C U57G G63C U69G, the “self-cleavage kobs at 640 uM GlcN6P” value in data set [1] came out at 0.0016 ± 0.00077 s⁻¹.

With A52U U65A U69C, in data set [4], the “self-cleavage kobs at 40 uM GlcN6P” value was under 1e-05 s⁻¹.

Consider A53G G60U C71A, for which, in data set [4], the “self-cleavage kobs at 40 uM GlcN6P” value is under 1e-05 s⁻¹.

With G60C G66U, in data set [4], the “self-cleavage kobs at 40 uM GlcN6P” value is under 1e-05 s⁻¹. For the same variant, the “self-cleavage kobs at 640 uM GlcN6P” value in data set [1] is under 1e-05 s⁻¹. Besides, the “self-cleavage kobs at 2500 uM GlcN6P” value in data set [3] is under 1e-05 s⁻¹.

With G60U C61G, the “self-cleavage kobs at 40 uM GlcN6P” value in data set [4] is under 1e-05 s⁻¹. Further, the “self-cleavage kobs at 2500 uM GlcN6P” value in data set [3] was under 1e-05 s⁻¹. Further, the “self-cleavage kobs at 10000 uM GlcN6P” value in data set [5] was under 1e-05 s⁻¹.

Turning to U55C G59U, the “self-cleavage kobs at 40 uM GlcN6P” value in data set [4] was under 1e-05 s⁻¹.

For U57G A64C, the “self-cleavage kobs at 40 uM GlcN6P” value in data set [4] is under 1e-05 s⁻¹. The “self-cleavage kobs at 640 uM GlcN6P” value in data set [1] is under 1e-05 s⁻¹. In addition, in data set [2], the “self-cleavage kobs at 160 uM GlcN6P” value was under 1e-05 s⁻¹. In addition, in data set [5], the “self-cleavage kobs at 10000 uM GlcN6P” value was under 1e-05 s⁻¹.

Take U54C U65G: the “self-cleavage kobs at 40 uM GlcN6P” value in data set [4] is 5.43e-05 ± 8.6e-06 s⁻¹.

Take A53U U55G A64C: the “self-cleavage kobs at 40 uM GlcN6P” value in data set [4] was under 1e-05 s⁻¹.

U56G G60U A64U: in data set [4], the “self-cleavage kobs at 40 uM GlcN6P” value was under 1e-05 s⁻¹. In data set [1], the “self-cleavage kobs at 640 uM GlcN6P” value was under 1e-05 s⁻¹. Also, in data set [2], the “self-cleavage kobs at 160 uM GlcN6P” value is under 1e-05 s⁻¹. For the same variant, the “self-cleavage kobs at 10000 uM GlcN6P” value in data set [5] was under 1e-05 s⁻¹.

Take G60C G62C: in data set [4], the “self-cleavage kobs at 40 uM GlcN6P” value was under 1e-05 s⁻¹. Further, the “self-cleavage kobs at 160 uM GlcN6P” value in data set [2] was under 1e-05 s⁻¹.

As to G60C G62A, the “self-cleavage kobs at 40 uM GlcN6P” value in data set [4] was under 1e-05 s⁻¹. For the same variant, in data set [2], the “self-cleavage kobs at 160 uM GlcN6P” value is under 1e-05 s⁻¹. Besides, the “self-cleavage kobs at 10000 uM GlcN6P” value in data set [5] is under 1e-05 s⁻¹.

Take G62U G66U C71U: in data set [4], the “self-cleavage kobs at 40 uM GlcN6P” value is under 1e-05 s⁻¹. Further, in data set [1], the “self-cleavage kobs at 640 uM GlcN6P” value is under 1e-05 s⁻¹. Further, in data set [3], the “self-cleavage kobs at 2500 uM GlcN6P” value was under 1e-05 s⁻¹.

A6C A36G A42U: the “self-cleavage kobs at 640 uM GlcN6P” value in data set [1] was under 1e-05 s⁻¹. Further, the “self-cleavage kobs at 2500 uM GlcN6P” value in data set [3] was under 1e-05 s⁻¹.

C58U: the “self-cleavage kobs at 40 uM GlcN6P” value in data set [4] is under 1e-05 s⁻¹.

Regarding U54A C61G A64G, the “self-cleavage kobs at 40 uM GlcN6P” value in data set [4] was under 1e-05 s⁻¹. Also, the “self-cleavage kobs at 2500 uM GlcN6P” value in data set [3] was under 1e-05 s⁻¹. The “self-cleavage kobs at 10000 uM GlcN6P” value in data set [5] is under 1e-05 s⁻¹.

In the case of G63A U65A, the “self-cleavage kobs at 40 uM GlcN6P” value in data set [4] is under 1e-05 s⁻¹. Also, the “self-cleavage kobs at 2500 uM GlcN6P” value in data set [3] is under 1e-05 s⁻¹. Also, in data set [5], the “self-cleavage kobs at 10000 uM GlcN6P” value is under 1e-05 s⁻¹.

On to U55C U69G, for which the “self-cleavage kobs at 40 uM GlcN6P” value in data set [4] was under 1e-05 s⁻¹.

As for A53G U56A, the “self-cleavage kobs at 40 uM GlcN6P” value in data set [4] was found to be 0.000437 ± 9e-05 s⁻¹. Moreover, in data set [1], the “self-cleavage kobs at 640 uM GlcN6P” value came out at 0.00273 ± 0.00051 s⁻¹. Moreover, the “self-cleavage kobs at 160 uM GlcN6P” value in data set [2] was 0.00116 ± 0.00021 s⁻¹. Also, in data set [3], the “self-cleavage kobs at 2500 uM GlcN6P” value was determined as 0.00663 ± 0.0019 s⁻¹. In addition, the “self-cleavage kobs at 10000 uM GlcN6P” value in data set [5] came out at 0.0137 ± 0.0026 s⁻¹.

As to G60A C70U, the “self-cleavage kobs at 40 uM GlcN6P” value in data set [4] was under 1e-05 s⁻¹. Also, in data set [3], the “self-cleavage kobs at 2500 uM GlcN6P” value is 1.93e-05 ± 9.2e-06 s⁻¹. Also, the “self-cleavage kobs at 10000 uM GlcN6P” value in data set [5] is 3.02e-05 ± 6.5e-06 s⁻¹.
